According to the supplement of paper PMC8728848:
This is one part of the list.

Columns and labels:
Assay in all cases: glycan array binding signal (z-score within array); higher = stronger binding
Conditions in all cases: glycan notation: IUPAC condensed, linker removed
[1] = target: Neu5Ac(a2-3)Gal(b1-3)GlcNAc(b1-6)GalNAc
Method in brief: (§1)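 Negative Z-scores can be read as non-binding. The Z-score is calculated within each array and then averaged across arrays of one protein sequence at different concentrations or buffers and across linkers. Arrays, 3228 in all, were curated from the Consortium for Functional Glycomics database and kept only where the protein sequence was available.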

[2] = target: Neu5Ac(a2-3)Gal(b1-3)GlcNAc6S
Method in brief: as §1

[3] = target: Neu5Ac(a2-3)Gal(b1-3)[Fuc(a1-4)]GlcNAc
Method in brief: as §1

[4] = target: Neu5Ac(a2-3)Gal(b1-3)[Fuc(a1-4)]GlcNAc(b1-3)Gal(b1-3)[Fuc(a1-4)]GlcNAc
Method in brief: as §1

[5] = target: Neu5Ac(a2-3)Gal(b1-3)[Fuc(a1-4)]GlcNAc(b1-3)Gal(b1-4)[Fuc(a1-3)]GlcNAc
Method in brief: as §1

[6] = target: Neu5Ac(a2-3)Gal(b1-3)[GlcNAc(b1-6)]GalNAc
Method in brief: as §1

[7] = target: Neu5Ac(a2-3)Gal(b1-3)[Neu5Ac(a2-6)]GalNAc
Method in brief: as §1

[8] = target: Neu5Ac(a2-3)Gal(b1-3)[Neu5Ac(a2-6)]GlcNAc(b1-3)[Fuc(a1-3)[Gal(b1-4)]GlcNAc(b1-6)]Gal(b1-4)Glc
Method in brief: as §1

[9] = target: Neu5Ac(a2-3)Gal(b1-3)]Neu5Ac(a2-3)Gal(b1-4)]GlcNAc
Method in brief: as §1

[10] = target: Neu5Ac(a2-3)Gal(b1-4)Glc
Method in brief: as §1

[11] = target: Neu5Ac(a2-3)Gal(b1-4)GlcNAc
Method in brief: as §1

[12] = target: Neu5Ac(a2-3)Gal(b1-4)GlcNAc(b1-2)Man
Method in brief: as §1

[13] = target: Neu5Ac(a2-3)Gal(b1-4)GlcNAc(b1-2)Man(a1-3)[GlcNAc(b1-4)][Neu5Ac(a2-3)Gal(b1-4)GlcNAc(b1-2)Man(a1-6)]Man(b1-4)GlcNAc(b1-4)GlcNAc
Method in brief: as §1

[14] = target: Neu5Ac(a2-3)Gal(b1-4)GlcNAc(b1-2)Man(a1-3)[Neu5Ac(a2-3)Gal(b1-4)GlcNAc(b1-2)Man(a1-6)]Man(b1-4)GlcNAc(b1-4)GlcNAc
Method in brief: as §1

[15] = target: Neu5Ac(a2-3)Gal(b1-4)GlcNAc(b1-2)Man(a1-3)[Neu5Ac(a2-3)Gal(b1-4)GlcNAc(b1-2)Man(a1-6)]Man(b1-4)GlcNAc(b1-4)[Fuc(a1-6)]GlcNAc
Method in brief: as §1

[16] = target: Neu5Ac(a2-3)Gal(b1-4)GlcNAc(b1-2)Man(a1-3)[Neu5Ac(a2-6)Gal(b1-4)GlcNAc(b1-2)Man(a1-6)]Man(b1-4)GlcNAc(b1-4)GlcNAc
Method in brief: as §1

[17] = target: Neu5Ac(a2-3)Gal(b1-4)GlcNAc(b1-2)[Neu5Ac(a2-3)Gal(b1-4)GlcNAc(b1-4)]Man(a1-3)[GlcNAc(b1-4)][Neu5Ac(a2-3)Gal(b1-4)GlcNAc(b1-2)[Neu5Ac(a2-3)Gal(b1-4)GlcNAc(b1-6)]Man(a1-6)]Man(b1-4)GlcNAc(b1-4)GlcNAc
Method in brief: as §1

[18] = target: Neu5Ac(a2-3)Gal(b1-4)GlcNAc(b1-2)[Neu5Ac(a2-3)Gal(b1-4)GlcNAc(b1-4)]Man(a1-3)[GlcNAc(b1-4)][Neu5Ac(a2-3)Gal(b1-4)GlcNAc(b1-4)Man(a1-6)]Man(b1-4)GlcNAc(b1-4)GlcNAc
Method in brief: as §1

[19] = target: Neu5Ac(a2-3)Gal(b1-4)GlcNAc(b1-2)[Neu5Ac(a2-3)Gal(b1-4)GlcNAc(b1-6)]Man(a1-6)[Neu5Ac(a2-3)Gal(b1-4)GlcNAc(b1-2)Man(a1-3)][GlcNAc(b1-4)]Man(b1-4)GlcNAc(b1-4)GlcNAc
Method in brief: as §1

[20] = target: Neu5Ac(a2-3)Gal(b1-4)GlcNAc(b1-3)Gal
Method in brief: as §1

[21] = target: Neu5Ac(a2-3)Gal(b1-4)GlcNAc(b1-3)Gal(b1-3)GlcNAc
Method in brief: as §1

[22] = target: Neu5Ac(a2-3)Gal(b1-4)GlcNAc(b1-3)Gal(b1-4)GlcNAc
Method in brief: as §1

[23] = target: Neu5Ac(a2-3)Gal(b1-4)GlcNAc(b1-3)Gal(b1-4)GlcNAc(b1-2)Man(a1-3)[Neu5Ac(a2-3)Gal(b1-4)GlcNAc(b1-3)Gal(b1-4)GlcNAc(b1-2)Man(a1-6)]Man(b1-4)GlcNAc(b1-4)GlcNAc
Method in brief: as §1

[24] = target: Neu5Ac(a2-3)Gal(b1-4)GlcNAc(b1-3)Gal(b1-4)GlcNAc(b1-3)Gal(b1-4)GlcNAc
Method in brief: as §1

[25] = target: Neu5Ac(a2-3)Gal(b1-4)GlcNAc(b1-3)Gal(b1-4)GlcNAc(b1-3)Gal(b1-4)GlcNAc(b1-2)Man(a1-3)[Neu5Ac(a2-3)Gal(b1-4)GlcNAc(b1-3)Gal(b1-4)GlcNAc(b1-3)Gal(b1-4)GlcNAc(b1-2)Man(a1-6)]GalNAc
Method in brief: as §1

[26] = target: Neu5Ac(a2-3)Gal(b1-4)GlcNAc(b1-3)Gal(b1-4)GlcNAc(b1-3)GalNAc
Method in brief: as §1

[27] = target: Neu5Ac(a2-3)Gal(b1-4)GlcNAc(b1-3)Gal(b1-4)GlcNAc(b1-3)[Neu5Ac(a2-3)Gal(b1-4)GlcNAc(b1-3)Gal(b1-4)GlcNAc(b1-6)]GalNAc
Method in brief: as §1

[28] = target: Neu5Ac(a2-3)Gal(b1-4)GlcNAc(b1-3)Gal(b1-4)GlcNAc(b1-6)[Gal(b1-3)]GalNAc
Method in brief: as §1

[29] = target: Neu5Ac(a2-3)Gal(b1-4)GlcNAc(b1-3)Gal(b1-4)[Fuc(a1-3)]GlcNAc
Method in brief: as §1

[30] = target: Neu5Ac(a2-3)Gal(b1-4)GlcNAc(b1-3)GalNAc
Method in brief: as §1

B1: MpAFP NterminalRI GFP (Marinomonas primoryensis) (protein)
chain: MSDNQFPFATLGNAIGFITKLDGSVTVQSIDGQERVLKLGDPIFFGETVLTGGSGSVTIAFVDGTDVVIGGDSIVEMTDEIYNTGDNEDLVADSSSEIDALQNAILAGDDPTLIQDAPAAGNTLADQQRVDVSIERNDNSAQAGFGVDTQSSLPTYGYDTDNGNGGQATEREYSAPSLSRTLNQSPLLEHHHHHH
- glycan array binding signal (z-score) [1]: -0.009
- glycan array binding signal (z-score) [2]: 0.339
- glycan array binding signal (z-score) [3]: -0.583
- glycan array binding signal (z-score) [4]: -0.313
- glycan array binding signal (z-score) [5]: -0.29
- glycan array binding signal (z-score) [6]: -0.478
- glycan array binding signal (z-score) [7]: -0.42
- glycan array binding signal (z-score) [8]: -0.298
- glycan array binding signal (z-score) [9]: -0.531
- glycan array binding signal (z-score) [10]: -0.445
- glycan array binding signal (z-score) [11]: 1.08
- glycan array binding signal (z-score) [12]: 0.832
- glycan array binding signal (z-score) [13]: -0.253
- glycan array binding signal (z-score) [14]: -0.072
- glycan array binding signal (z-score) [15]: -0.065
- glycan array binding signal (z-score) [16]: 1.33
- glycan array binding signal (z-score) [17]: -0.553
- glycan array binding signal (z-score) [18]: -0.406
- glycan array binding signal (z-score) [19]: 0.624
- glycan array binding signal (z-score) [20]: -0.472
- glycan array binding signal (z-score) [21]: -0.607
- glycan array binding signal (z-score) [22]: -0.045
- glycan array binding signal (z-score) [23]: -0.068
- glycan array binding signal (z-score) [24]: -0.515
- glycan array binding signal (z-score) [25]: 2.98
- glycan array binding signal (z-score) [26]: -0.284
- glycan array binding signal (z-score) [27]: 0.074
- glycan array binding signal (z-score) [28]: -0.133
- glycan array binding signal (z-score) [29]: -0.372
- glycan array binding signal (z-score) [30]: -0.439
